Reference: the supplement of paper PMC11741623
The other results are listed elsewhere or left out. Interaction screen of human proteins with wild-type SARS-CoV-2 proteins by split-DHFR complementation in yeast, 1 µg/mL methotrexate. Value = fitness of the pair (three or more lineages) minus that of the viral protein without a human partner, on a scale set by negative (0) and fused positive (1) controls, mean of up to three cultures; higher = more likely to interact. Active = false discovery rate below 0.05 (one-sided t-test) in at least one culture. Nearly all pairs are not hits, and differences among them are mostly noise (correlation between cultures about 0.3); most hits were seen in one culture only. Human sequences are the Swiss-Prot entries looked up by gene name; the clone may be another isoform. NSP2 values were corrected by the authors for a growth advantage. Listed are human proteins with a hit and a random twelfth of the others.

What was measured:
Assay in all cases: yeast fitness gain over the viral ORF with no human partner (scaled fitness); higher = more likely to interact
SARS-CoV-2 NSP13 = test system: SARS-CoV-2 NSP13
Method: (§1)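 Split mouse DHFR complementation in pooled diploid yeast: human ORFeome clones carry one fragment and viral ORFs the other; barcoded lineages compete in 1 µg/mL methotrexate and fitness is read by barcode sequencing in up to three cultures.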

SARS-CoV-2 NSP2 = test system: SARS-CoV-2 NSP2
Method: as §1

SARS-CoV-2 ORF3B = test system: SARS-CoV-2 ORF3B
Method: as §1

SARS-CoV-2 ORF6 = test system: SARS-CoV-2 ORF6
Method: as §1

SARS-CoV-2 ORF7B = test system: SARS-CoV-2 ORF7B
Method: as §1

SARS-CoV-2 NSP10 = test system: SARS-CoV-2 NSP10
Method: as §1

SARS-CoV-2 NSP5 = test system: SARS-CoV-2 NSP5
Method: as §1

SARS-CoV-2 NSP7 = test system: SARS-CoV-2 NSP7
Method: as §1

SARS-CoV-2 ORF10 = test system: SARS-CoV-2 ORF10
Method: as §1

SARS-CoV-2 ORF8 = test system: SARS-CoV-2 ORF8
Method: as §1

SARS-CoV-2 NSP1 = test system: SARS-CoV-2 NSP1
Method: as §1

SARS-CoV-2 NSP16 = test system: SARS-CoV-2 NSP16
Method: as §1

SARS-CoV-2 NSP6 = test system: SARS-CoV-2 NSP6
Method: as §1

SARS-CoV-2 ORF7A = test system: SARS-CoV-2 ORF7A
Method: as §1

SARS-CoV-2 S = test system: SARS-CoV-2 S
Method: as §1

SARS-CoV-2 M = test system: SARS-CoV-2 M
Method: as §1

SARS-CoV-2 NSP9 = test system: SARS-CoV-2 NSP9
Method: as §1

SARS-CoV-2 N = test system: SARS-CoV-2 N
Method: as §1

SARS-CoV-2 NSP15 = test system: SARS-CoV-2 NSP15
Method: as §1

SARS-CoV-2 NSP8 = test system: SARS-CoV-2 NSP8
Method: as §1

Measured: yeast fitness gain

HOXC8, P31273
inactive: SARS-CoV-2 NSP13 = 0.0347 | SARS-CoV-2 NSP2 = -0.229 | SARS-CoV-2 ORF3B 0.00331 | SARS-CoV-2 ORF6 = -0.32 | SARS-CoV-2 ORF7B -0.0517

TLK2, Q86UE8
inactive: SARS-CoV-2 NSP10 = 0.074 | SARS-CoV-2 NSP13 = -0.0702 | SARS-CoV-2 NSP2 = -0.107 | SARS-CoV-2 NSP5 = -0.0509 | SARS-CoV-2 NSP7 = 0.0258 | SARS-CoV-2 ORF10 = -0.0163 | SARS-CoV-2 ORF8 = -0.0242

DESI2, Q9BSY9
inactive: SARS-CoV-2 NSP13 = 0.138 | SARS-CoV-2 NSP1 = -0.0358 | SARS-CoV-2 NSP2 = -0.201 | SARS-CoV-2 ORF7B 0.114 | SARS-CoV-2 ORF8 = -0.0789

ZFYVE26, Q68DK2
inactive: SARS-CoV-2 NSP10 = -0.205 | SARS-CoV-2 NSP13 = 0.00721 | SARS-CoV-2 NSP16 = 0.0518 | SARS-CoV-2 NSP2 = -0.137 | SARS-CoV-2 NSP5 = 0.0264 | SARS-CoV-2 NSP6 = 0.156 | SARS-CoV-2 NSP7 = -0.138 | SARS-CoV-2 ORF10 = -0.159 | SARS-CoV-2 ORF3B -0.0848 | SARS-CoV-2 ORF6 = 0.00297 | SARS-CoV-2 ORF7A -0.605 | SARS-CoV-2 ORF7B -0.07 | SARS-CoV-2 ORF8 = -0.0588 | SARS-CoV-2 S -0.149

CBWD1, Q9BRT8
inactive: SARS-CoV-2 M -0.00961 | SARS-CoV-2 NSP1 = 0.0485 | SARS-CoV-2 NSP5 = -0.13 | SARS-CoV-2 NSP6 = -0.161 | SARS-CoV-2 NSP7 = 0.119 | SARS-CoV-2 NSP9 = 0.0851 | SARS-CoV-2 ORF3B 0.00877 | SARS-CoV-2 ORF7A -0.0815

HYDIN, Q4G0P3
inactive: SARS-CoV-2 M -0.0219 | SARS-CoV-2 NSP10 = 0.0491 | SARS-CoV-2 NSP13 = 0.0373 | SARS-CoV-2 NSP2 = -0.138 | SARS-CoV-2 NSP7 = 0.0582 | SARS-CoV-2 N -0.0656 | SARS-CoV-2 ORF3B 0.103 | SARS-CoV-2 ORF6 = 0.0481 | SARS-CoV-2 ORF7A -0.174 | SARS-CoV-2 ORF7B 0.0392 | SARS-CoV-2 ORF8 = -0.0681

TET2, Q6N021
inactive: SARS-CoV-2 NSP10 = -0.0812 | SARS-CoV-2 NSP13 = -0.0893 | SARS-CoV-2 NSP2 = -0.287 | SARS-CoV-2 NSP7 = -0.0934 | SARS-CoV-2 ORF3B 0.0195 | SARS-CoV-2 ORF6 = 0.031 | SARS-CoV-2 ORF7B -0.169 | SARS-CoV-2 ORF8 = -0.0248

OR4D1, Q15615
inactive: SARS-CoV-2 NSP10 = -0.0024 | SARS-CoV-2 NSP13 = -0.356 | SARS-CoV-2 NSP6 = 0.0358 | SARS-CoV-2 ORF3B -0.261

KPNA1, P52294
inactive: SARS-CoV-2 M -0.132 | SARS-CoV-2 NSP10 = -0.114 | SARS-CoV-2 NSP13 = -0.0847 | SARS-CoV-2 NSP15 = 0.0531 | SARS-CoV-2 NSP1 = -0.0408 | SARS-CoV-2 NSP2 = -0.147 | SARS-CoV-2 NSP5 = -0.0842 | SARS-CoV-2 NSP6 = 0.00227 | SARS-CoV-2 NSP7 = 0.247 | SARS-CoV-2 NSP8 = -0.0293 | SARS-CoV-2 NSP9 = 0.0672 | SARS-CoV-2 ORF10 = -0.00837 | SARS-CoV-2 ORF3B 0.00825 | SARS-CoV-2 ORF6 = 0.0124 | SARS-CoV-2 ORF7B 0.0266 | SARS-CoV-2 ORF8 = -0.149

ZNF720, Q7Z2F6
inactive: SARS-CoV-2 M -0.0132 | SARS-CoV-2 NSP10 = -0.107 | SARS-CoV-2 NSP13 = -0.0615 | SARS-CoV-2 NSP2 = -0.0523 | SARS-CoV-2 NSP6 = -0.00278 | SARS-CoV-2 NSP7 = -0.218 | SARS-CoV-2 ORF6 = -0.108 | SARS-CoV-2 ORF8 = 0.0551
